A collection of fitness landscapes (doi:10.1038/s41467-024-54723-y)
The full ranking holds about 18,000 sequences; the median of “TetR repression strength (sort-seq, GFP reporter)” is about 0.23, and the highest 2% start at about 0.68. Some of the results follow.

Each sequence was assayed against TetR (class B, Tn10) (UniProt P04483) (assay: TetR repression strength (sort-seq, GFP reporter) (relative to tetO2 = 1); higher = stronger repression). Conditions: E. coli.
Outline: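 E. coli SIG10-MAX carried a low-copy plasmid library with eight randomized operator positions between a constitutive promoter and sfGFP, with TetR constitutively expressed. Cells grew 5 h at 37 °C in LB with 50 µg/mL chloramphenicol, then 10^6 cells were FACS-sorted into 13 fluorescence bins, each Illumina-sequenced. Repression strength is the top bin index plus one minus the read-weighted mean bin, divided by the wild-type operator value. Three independent transformations; variants with ≥30 reads in all replicates and CV ≤0.5 were averaged.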

Chain of UniProt P04483 (P04483 whole entry): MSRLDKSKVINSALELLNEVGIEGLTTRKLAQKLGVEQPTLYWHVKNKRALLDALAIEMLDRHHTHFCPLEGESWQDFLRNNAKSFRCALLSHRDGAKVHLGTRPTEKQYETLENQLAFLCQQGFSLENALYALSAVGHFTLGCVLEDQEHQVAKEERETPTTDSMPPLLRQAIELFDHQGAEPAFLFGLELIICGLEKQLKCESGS

| Sequence | TetR repression strength |
| --- | --- |
| TCCCCTGAAGTTTCCGAGA | 0.283 |
| TCCCGTTAAGTAGGTGAGA | 0.33 |
| TCCCTGGTAGTCACAGAGA | 0.282 |
| TCCCCAGTAGTACCAGAGA | 0.139 |
| TCCCGCCGAGTCAGGGAGA | 0.225 |
| TCCCAGGGAGTGGCCGAGA | 0.281 |
| TCCCGAGAAGTTTCTGAGA | 0.0814 |
| TCCCGGAGAGTGTTGGAGA | 0.211 |
| TCCCAGTCAGTACTTGAGA | 0.219 |
| TCCCTAAGAGTGGATGAGA | 0.162 |
| TCCCGGCTAGTAGGGGAGA | 0.27 |
| TCCCGGGTAGTGGTAGAGA | 0.272 |
| TCCCAAACAGTCCGTGAGA | 0.424 |
| TCCCTTTGAGTCTTAGAGA | 0.291 |
| TCCCAGAAAGTGACTGAGA | 0.0441 |
| TCCCTAACAGTTACCGAGA | 0.0473 |
| TCCCGAGCAGTCCGAGAGA | 0.193 |
| TCCCGGGTAGTAGGAGAGA | 0.203 |
| TCCCTATGAGTTCGAGAGA | 0.195 |

| Sequence | TetR repression strength |
| --- | --- |
| TCCCGGGTAGTTCAGGAGA | 0.161 |
| TCCCCTACAGTGAGAGAGA | 0.293 |
| TCCCACCCAGTCAACGAGA | 0.231 |
| TCCCCATCAGTGGGCGAGA | 0.247 |
| TCCCCTCCAGTGGTGGAGA | 0.253 |
| TCCCTTGTAGTATGAGAGA | 0.071 |
| TCCCACTTAGTGAATGAGA | 0.0683 |
| TCCCGTTTAGTACCAGAGA | 0.196 |
| TCCCAAGGAGTGTAGGAGA | 0.203 |
| TCCCTGCCAGTGCTGGAGA | 0.395 |
| TCCCGTACAGTAGCCGAGA | 0.518 |
| TCCCGTGGAGTGATCGAGA | 0.185 |
| TCCCTGTAAGTACGCGAGA | 0.24 |
| TCCCTCCTAGTGCGAGAGA | 0.151 |
| TCCCCGGAAGTAAGTGAGA | 0.177 |
| TCCCTATCAGTGAGGGAGA | 0.5 |
| TCCCTATAAGTTAAGGAGA | 0.314 |
| TCCCAGGGAGTCCTTGAGA | 0.0841 |
| TCCCACGGAGTCATCGAGA | 0.543 |

| Sequence | TetR repression strength |
| --- | --- |
| TCCCCGCGAGTTTAGGAGA | 0.373 |
| TCCCACAAAGTGCGTGAGA | 0.0817 |
| TCCCGACTAGTCGTAGAGA | 0.442 |
| TCCCGAGGAGTAGCAGAGA | 0.227 |
| TCCCCGCAAGTCCTAGAGA | 0.215 |
| TCCCGCGTAGTAGGGGAGA | 0.425 |
| TCCCTTGTAGTGGCGGAGA | 0.271 |
| TCCCCACTAGTGAGCGAGA | 0.203 |
| TCCCTTCGAGTGCGGGAGA | 0.221 |
| TCCCGGATAGTCCTAGAGA | 0.0544 |
| TCCCTCGCAGTGCGGGAGA | 0.252 |
| TCCCGAGAAGTCAGGGAGA | 0.0148 |
| TCCCCTATAGTGGCAGAGA | 0.113 |
| TCCCTAAGAGTTCTCGAGA | 0.311 |
| TCCCCCACAGTGTAAGAGA | 0.183 |
| TCCCGATCAGTACACGAGA | 0.279 |
| TCCCCATCAGTCCTCGAGA | 0.327 |
| TCCCCGGAAGTAGGCGAGA | 0.186 |
